This test relates to U2OS. Nature of the test: Cell Painting induction (percent of morphological features significantly changed vs DMSO); higher = stronger morphological change. As to conditions: 10 µM, 20 h. As for the experimental part:
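Cell Painting assay in U2OS cells: compounds at 10 µM for 20 h, six dyes, 579 robust CellProfiler features as Z-scores vs DMSO median (MAD). Induction is the % of significantly changed features (active if ≥5%); relative cell count is in % of DMSO. The primary run holds DCM compounds preselected for induction ≥10%; the confirmation repeat defines active compounds (370 of 549). Replicate agreement is low, attributed to precipitation.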

The mark [1] stands for this setting: run: primary screen (compounds selected for induction >=10%).

The structures appear in SMILES notation. This is one part of the list. Single values of this set are uncertain.
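Further: stains mark DNA, RNA and nucleoli, ER, actin, Golgi, plasma membrane and mitochondria, read by high-content imaging, with DMSO controls at matching solvent concentration.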

`COc1ccc(N(CC(O)Cn2c(C)nc3ccccc32)S(=O)(=O)c2ccc(C)cc2)cc1` (centres undefined): the “Cell Painting induction” value (run: confirmation repeat) was active: 6.7% and the “Cell Painting induction” value under setting [1] turned out to be 20.9%.
As to `COc1cc(-c2ccc(NC(=O)c3ccc(C)cc3)c(OC)c2)ccc1NC(=O)c1ccc(C)cc1`, the “Cell Painting induction” value is inactive: 0.7% (run: confirmation repeat) and 34.5% under setting [1].
As for `COc1ccc(N2CCN(CCCNC(=O)Cn3c(=O)c4cccn4c4ccccc43)CC2)cc1`, the “Cell Painting induction” value is active: 8.5% (run: confirmation repeat) and 11.7% under setting [1].
On to `CCN(CC)CCNC(=O)c1cn(CC)c2ccc(S(=O)(=O)N(C)C3CCCCC3)cc2c1=O`, for which the “Cell Painting induction” value runs as follows: (run: confirmation repeat) inactive: 3.6%; under setting [1], 16.4%.
As to `CCCCN(CCCNC(=O)c1ccc(CS(=O)(=O)c2c(Cl)cccc2Cl)o1)Cc1ccccc1`, the “Cell Painting induction” value (run: confirmation repeat) is active: 45.4% and the “Cell Painting induction” value under setting [1] amounted to 45.6%.
Regarding `CN(C1CCCCC1)C(CNS(=O)(=O)c1ccc(Cl)cc1)c1ccccc1` (centres undefined), the “Cell Painting induction” value runs as follows: (run: confirmation repeat) active: 26.3%; under setting [1], 10.9%.
Consider `C=C(C)c1cccc(C(C)(C)NC(=O)N2CCN(C/C=C/c3ccccc3)CC2)c1`, for which the “Cell Painting induction” value reads like this: (run: confirmation repeat) active: 5.7%; under setting [1], 21.9%.
In the case of `COc1ccc(N(C(C)C(=O)N/N=C/c2ccc(OCC(C)C)cc2)S(C)(=O)=O)cc1` (centres undefined), the “Cell Painting induction” value reads like this: (run: confirmation repeat) active: 8.3%; under setting [1], 13.1%.
For the compound `O=S(=O)(c1ccc(-c2ccc(O)nn2)o1)N1CCN(c2cccc(Cl)c2)CC1`, the “Cell Painting induction” value runs as follows: (run: confirmation repeat) active: 49.4%; under setting [1], 54.6%.
Consider `Cc1ccc(-c2nn3c(C)nnc3s2)cc1NC(=O)c1ccc(OC(C)C)cc1`, for which the “Cell Painting induction” value runs as follows: (run: confirmation repeat) active: 7.9%; under setting [1], 22.8%.
Taken in the same sequence, the figures for `Cc1c(Cl)cccc1-n1ncc(C(=O)Nc2ccccc2F)c1C1CCNCC1` were active: 27.1% and 24.4%.
Turning to `CCOC(=O)c1ccc(NC(=O)C2CCN(S(=O)(=O)c3ccccc3)CC2)cc1`, the “Cell Painting induction” value is, setting by setting: (run: confirmation repeat) active: 25.2%; under setting [1], 59.8%.
